The RNAGym collection of RNA variant scans (doi:10.7554/elife.90254)
The source gives no read counts; variants with many changes may rest on few reads.

B1: LINE1-mini (parent)
chain: GGCAGAGCUCAACACAGCGUGGCAAAGUGGCUGUGGCUAGACUGCC

Variants of: B1
Assay: self-cleavage, relative activity (ratio to wild type); higher = more cleavage; in vitro, sequencing; the parent is a self-cleaving ribozyme
Variant GGGAGAGCUCAAUACAGCCUGGCAAAGUGCCUGUGGCUAGACUGCC has a self-cleavage of 0.39.
In the case of GGGAGAGCUCAAAACAGCGUGGCAAAGUGGCUGAGGCUAGACAGCC, the self-cleavage is reported as 0.17.
For GGGAGAGCUAAACACACCGUGGCAAAGUGGGUGUGGCUAGACUGCC, the self-cleavage was 0.01.
In the case of GGGAGAGCUUAACAUAGCGUGGCAAAGAGGCUAUGGCUAGACUGCC, the self-cleavage is reported as 0.11.
In the case of GGGAGAGCUCAAUACAGCGUGGCAAUGUGGCUGUGGCUAGACUGCC, the self-cleavage is reported as 0.1.
With GGGAGAGCUCAACAUAGCGUGGCAAUAUGGCUUUGGCUAGACUGCC the self-cleavage was 0.04.
With GGGAGAGCUCAAUACCGCGUGGCAAAGAGGCUGUCGCUAAACUUCC the self-cleavage was 0.05.
For GGGAGAGCUCAAAACAGCGUGGCAAAGUGGCAGUGGCUAGGCUGCC, the self-cleavage was 0.14.
Variant GGGAGAGCUAAACACAGCGUGGCAAAGUGGCUGUGGCUAGACUGCG has a self-cleavage of 0.04.
GGGAGAGCUCAAAACAGCGUGGCAAGGUGGCUGUGGCUAGACUGCC gave a self-cleavage of 0.05.
With GGGAGAGCUCAAAACAGCGAGGCAAAGUGGCUGUGGCUAGACUGCC the self-cleavage was 0.07.
With GGGAGAGCUCAAAACAGCGUGGCAACGUCGCUGUGGCUAGACUUCC the self-cleavage was 0.11.
For GGGAGAGCUCAAUACAUCGUGGCAAAGCGGCUGUGGCUAGACUGCC, the self-cleavage was 0.12.
In the case of GGGAGAGCUCAACAUAGCGUGGCAAAGUGGCUGUGGCUAGGCUGCC, the self-cleavage is reported as 0.27.
In the case of GGGAGAGCUCAAGACAGCGUGGCAAACGGUCUGUGACUAGACUACC, the self-cleavage is reported as 0.08.
Variant GGGAGAGCUAAACACAGCGUGGCAAAGUGGCUGUGGCAAGCCUGCC has a self-cleavage of 0.01.
For GGGAGAGCUAAACACAGCGUGGCAAAGUGGCUGUGCCUAGAGUGUC, the self-cleavage was 0.
For GGGAGAGCUCAACACAGGGUCGCUAAGUGGCUGUGGCUAGACUGCC, the self-cleavage was 0.03.
GGGAGAGCUUAACACUGCGUGGCAAAGUGGGUGUGGCUAGACUGCC gave a self-cleavage of 0.02.
GGGAGAGCUAAACACAGCUUGGCAAAGUGGCUGUGGCUUGACUGCC showed a self-cleavage of 0.02.
Work on GGGAGAGCUCAAAACAGCGUGACAAAGUGGCUGUGGCUAUACUGCC yielded a self-cleavage of 0.06.
Variant GGGAGAGCUCAAAAUCGCGUGGCACAGUGGCUGUGGCUAGACUGCC has a self-cleavage of 0.12.
With GGGAGAGCUCAACAUAGCAUGGCAAAGUGGCUGUGGCUAGACUGCC the self-cleavage was 0.1.
GGGAGAGCUCAACAGAGCGUGGCAAAGUGGCUGUGGAUAGACUGCC gave a self-cleavage of 0.06.
Work on GGGAGAGCUCAACAAAGCGUGGCAAAAUGGCUGUGGCUAGACUGCC yielded a self-cleavage of 0.31.
Work on GGGAGAGCUCAAGGCAGCGUGGCAAAGUGGCUGUUGCUAGACUGCC yielded a self-cleavage of 0.05.
Variant GGGAGAGCUCAAUAUAGCGUUGCAAAGUGGCUGUGGCUAGACUGCC has a self-cleavage of 0.21.
For GGGAGAGCUCAACAAAGCGUGCCAAAGUGGCUGUGGCUAGACUGCG, the self-cleavage was 0.1.
With GGGAGAGCUCAACAUAGCGUGGCAAAAUGGUUGUGUCUAGACUGCC the self-cleavage was 0.03.
For GGGAGAGCUCAAUACAGCGUGGCGAAGUGGCUGUGGCUAGACUGCC, the self-cleavage was 0.1.
GGGAGAGCUUAAAACAGCGUGGCAAAGUGGCUGUGGCUAGACUGCC gave a self-cleavage of 0.19.
GGGAGAGCUCAAAACAGCGUGGCAACGUGGCUGUGGCUAGACUGCA gave a self-cleavage of 0.05.
GGGAGAGCUCAACACAGAGUGGCAAAGUGGCUGUGGCUAGAUUGCC showed a self-cleavage of 0.13.
For GGGAGAGCUCAACACAGGGUGGCAAAGUGGCUGUGGCUAGUCUGCU, the self-cleavage was 0.01.
Work on GGGAGAGCUCAACACAGGGUGGCAAAGUGUCUGGGGCUAGACUGCC yielded a self-cleavage of 0.01.
Work on GGGAGAGCUCAACAGAGCGUCGCAAAGUGGCUGUGGUUCGAUAGCC yielded a self-cleavage of 0.02.
Variant GGGAGAGCUCAAUACAGCGUGGCAAAGUAGCUGUGGCUAGACCUCC has a self-cleavage of 0.08.
Variant GGGAGAGCUUAACACACCGGGGCAAAGUGGGUGUGGCGGGACAGCC has a self-cleavage of 0.01.
In the case of GGGAGAGCUCAAAACAGCGUGGUAAAGUGGCUCUGGCUAGACUGCC, the self-cleavage is reported as 0.13.
Variant GGGAGAGCUUAACACAGAGUGGCCAAGCGGCUGUGGCUGGACUGUC has a self-cleavage of 0.02.
GGGAGAGCUGAAGACAUCGUGGCUAAGUGGCUGUGGCUAGACUGCC gave a self-cleavage of 0.01.
With GGGAGAGCUCAACAGAGCGUGGCAAAGUGGCUGUGGCUAUACUGCC the self-cleavage was 0.03.
With GGGAGAGCUCAAAACAGCGUGGCAAAGUGGCUGUGGCGAGUCUGUA the self-cleavage was 0.04.
GGGAGAGCUGAGCACAGCGUGGCAAAGUGGCUGUGGCUAGACUGCC showed a self-cleavage of 0.03.
In the case of GGGAGAGCUCAAUGCAGCGUGUCUAAGUGGCUGUGGGUAGACUGCC, the self-cleavage is reported as 0.36.
With GGGAGAGCUUAACACAGCGGGGCAAAGUGGCUGUAGCUAGACUGCC the self-cleavage was 0.07.
Work on GGGAGAGCUCAAGACAGCGUGGCAAAGUGGCUGUGGCUAGACUGCG yielded a self-cleavage of 0.11.
For GGGAGAGCUCAAGACAGCGUGGCAAAGAGGCUGUGGCUAGACUGCC, the self-cleavage was 0.65.
GGGAGAGCUCAACACAGAGUGCCAAAGUGGCUGUGGCUAGACUGAC showed a self-cleavage of 0.02.
In the case of GGGAGAGCUCAAGACAGCGUGGCCAAGUCGCUGUGGCUAGACUGCC, the self-cleavage is reported as 0.06.
GGGAGAGCUCAACACAGAGUGGCAAAGUGGAUGUGGCUAGACUGCC gave a self-cleavage of 0.08.
GGGAGAGCUCAAGACAGCGUGGCAAAGUGGCUGUGGUUAGACUGCC showed a self-cleavage of 0.28.
GGGAGAGCUCAAGACAGCGUGGCAAAGUGGCUGUGGGUAGACUGCC showed a self-cleavage of 0.07.
Variant GGGAGAGCUUAACACAGCGUGGCAAAGUGGCUGUGGCUGGACUGCC has a self-cleavage of 0.03.
GGGAGAGCUCAACAAAGCGAGCCAAAGUGGCUGUGGCUAUACUGCC showed a self-cleavage of 0.08.
GGGAGAGCUCAACAUAGCGUGGCACAGUGGCUUUGGCUAGACUGCC gave a self-cleavage of 0.17.
